# The full ranking holds about 110,000 compounds; the median of “z-score” is about -0.1, and the highest 2% start at about 2. The list shows a part of the results. Calls of active or inactive are those of the source.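 How the source made its calls: active means z-score in the third read window above 3 or below -3; inactive means the rest.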
# Target: Metabotropic glutamate receptor 8 (Rattus norvegicus) (UniProt P70579)
# Test: mGluR8 Gi/Go-coupled signaling modulation – cell-based, rat, thallium flux, HTS, primary screen (AID 488969)
# Settings: HEK293 rat mGluR8, GIRK (G protein-gated inwardly rectifying potassium channel) thallium flux, FluoZin2; at 10 µM; stronger effect = higher value; submaximal glutamate (EC20) added with thallium
# Chain of UniProt P70579 (P70579 whole entry, looked up): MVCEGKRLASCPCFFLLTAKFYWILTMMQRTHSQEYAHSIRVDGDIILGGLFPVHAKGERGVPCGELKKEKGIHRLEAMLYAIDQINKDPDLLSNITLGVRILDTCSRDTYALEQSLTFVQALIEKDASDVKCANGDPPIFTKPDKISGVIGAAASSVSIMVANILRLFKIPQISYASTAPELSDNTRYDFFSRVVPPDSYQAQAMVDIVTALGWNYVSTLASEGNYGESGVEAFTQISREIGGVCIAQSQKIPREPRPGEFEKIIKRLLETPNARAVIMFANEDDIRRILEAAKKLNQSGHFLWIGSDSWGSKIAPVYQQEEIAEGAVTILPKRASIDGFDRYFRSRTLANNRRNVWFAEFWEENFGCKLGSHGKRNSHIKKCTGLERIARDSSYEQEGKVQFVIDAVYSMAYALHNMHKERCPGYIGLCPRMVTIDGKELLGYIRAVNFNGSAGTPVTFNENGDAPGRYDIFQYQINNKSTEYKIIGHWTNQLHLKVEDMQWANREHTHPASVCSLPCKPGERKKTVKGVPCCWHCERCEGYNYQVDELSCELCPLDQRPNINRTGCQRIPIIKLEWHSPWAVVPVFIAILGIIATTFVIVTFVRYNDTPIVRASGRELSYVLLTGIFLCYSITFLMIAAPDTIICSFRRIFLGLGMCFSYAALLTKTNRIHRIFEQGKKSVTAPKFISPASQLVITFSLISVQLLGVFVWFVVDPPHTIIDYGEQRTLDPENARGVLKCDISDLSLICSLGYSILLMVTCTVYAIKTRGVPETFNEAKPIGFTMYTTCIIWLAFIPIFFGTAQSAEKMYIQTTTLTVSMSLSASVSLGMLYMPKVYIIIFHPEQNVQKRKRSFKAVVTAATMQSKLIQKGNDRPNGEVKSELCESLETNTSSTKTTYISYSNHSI
row,SMILES,z-score
1,O=C(Nc1ccccc1SCC1CSc2nc3ccccc3c(=O)n21)c1cccc(Cl)c1 (stereo not drawn),-0.742
2,C=CCSc1ccsc1C(=O)O,0.112
3,COc1cc(-c2nc(-c3ccccc3)c(-c3cc([N+](=O)[O-])ccc3C)[nH]2)cc(OC)c1OC,-0.413
4,COC(=O)Cc1cc(=O)[nH]c(/N=C(\N)Nc2ccc(C)cc2)n1,-0.0949
5,CC1CCN(C(C(=O)Nc2ccc(C(C)C)cc2)c2ccc3c(c2)OCO3)CC1 (stereo not drawn),-0.141
6,CNS(=O)(=O)c1cnccc1N1CCN(c2cccc(C)c2)CC1,-0.611
7,CCOC(=O)c1nnc(-c2ccccc2)nc1Oc1ccc(Cl)cc1,0.0266
8,CNS(=O)(=O)c1cc(OC)ccc1OC,-0.202
9,C(/C=C/c1ccccc1)=N/N1CCN(c2ccccc2)CC1,-0.292
10,CCN(CC)S(=O)(=O)c1cc(NS(=O)(=O)c2cc(Cl)ccc2Cl)ccc1C,-0.28
11,Cc1c(Cc2ccccc2)sc(N)c1C(N)=O,0.0645
12,O=C(OCc1c(F)cccc1Cl)c1cnccn1,0.177
13,CCC(=O)c1ccc(O)c(CC=C(C)C)c1,-0.107
14,COc1ccc2[nH]c(=O)c(CN(Cc3cccs3)S(=O)(=O)c3c(C)ccc4nsnc34)cc2c1,-0.174
15,CCOc1cc2c(cc1OCC)C(c1ccc(OC)cc1)N(c1ccccc1)C(=O)C2 (stereo not drawn),-0.547
16,COc1cc2c(cc1C1NC(=S)NC(C)=C1C(=O)N(C)C)CCCC2 (stereo not drawn),-0.149
17,COc1ccc(/C=C/C(=O)NCc2ccccn2)cc1,0.0932
18,O=C(NC1CCCCC1)N1CCc2[nH]c3ccccc3c2C1,-0.365
19,CCC(=O)Nc1ccc(OC)cc1OC,0.733
20,Cc1ccc(CNC(=O)Cn2cncn2)cc1,0.00306
21,CCOC(=O)CSc1nc(-c2ccccc2)nc2c1oc1ccccc12,-0.0461
22,CCn1cc(C(=O)OCC(=O)OC2CC(C)CCC2C(C)C)c(=O)c2ccc(C)nc21 (stereo not drawn),-1.11
23,O=C(CCC(=O)c1cccs1)Nc1nnc(C2CC2)s1,0.089
24,Cc1csc(NC(=O)c2cc(C)oc2C)n1,-0.285
25,CCC(Sc1nc(=O)cc(N)n1CCc1ccccc1)C(=O)Nc1cc(C)on1 (stereo not drawn),0.678

row,SMILES,z-score
1,O=C(CCS(=O)(=O)c1cccs1)NC1CCCCCC1,-1.37
2,O=C(Nc1nnc(C2CCCO2)s1)c1cccs1 (stereo not drawn),0.541
3,COc1cc2c(C(=O)O)c(C)n(CC(C)C)c2c2ccccc12,-0.526
4,CCOC(=O)c1sc(NC(=S)NC(=O)C23CC4CC(CC(C4)C2)C3)cc1C,-0.261
5,c1ccc(CC2=NCCN2)cc1,-0.0775
6,COc1ccc(-c2cnc(NCc3cc4c(cc3[N+](=O)[O-])OCO4)n2C)cc1,-0.0037
7,COc1ccc(-c2nnc(SCC(=O)Nc3ccccc3OC)o2)cc1,0.113
8,c1ccc(-c2cn3c(n2)-c2ccccc2C3)cc1,-0.334
9,Cc1ccc(C2CC2C(=O)NNC(=S)Nc2cccc(Cl)c2)cc1 (stereo not drawn),active: 5.51
10,O=C(OC1CCN(c2ncc(C(F)(F)F)cc2Cl)CC1)c1ccccc1,-0.0942
11,O=C(CSc1nnc(COc2cccc3ccccc23)o1)N1CCN(C(=O)c2ccco2)CC1,-0.249
12,Cc1cccc(Nc2nc(-c3cccs3)cs2)n1,-0.368
13,Cc1nnc(SCC(=O)c2ccccc2)n1Cc1ccccc1,-0.213
14,CSc1nc(-c2ccco2)nn1C(=O)CCc1ccccc1,0.0998
15,CCCc1cc(C(=O)Nc2cccc(C(C)=O)c2)no1,0.29
16,CS(=O)(=O)Nc1ccc(C(=O)NCCSC2CCCCC2)cc1,-0.246
17,CS(=O)(=O)N(CC(=O)N1CCN(c2cccc(Cl)c2)CC1)c1cccc(F)c1,-1.27
18,CC(C)Oc1ccc(C(=O)NCc2cccs2)cc1,0.0965
19,O=C(CSc1nnc(SCc2ccc(Cl)cc2)s1)N1CCN(C(=O)c2ccco2)CC1,-0.43
20,NC(=O)C1CCN(S(=O)(=O)c2cccc(S(=O)(=O)N3CCCCC3)c2)CC1,0.0693
21,O=S(=O)(N/N=C\C=C\c1ccccc1)c1ccccc1,-0.137
22,CCOc1ccc2ncc(S(=O)(=O)c3ccccc3)c(N3CCN(c4ccc(OC)cc4)CC3)c2c1,-0.351
23,COc1ccc(-n2c(SCC(=O)NC3CCCCC3)nc3ccsc3c2=O)cc1,-0.145
24,Clc1ccc(OCCSCc2nc3ccccc3[nH]2)cc1,-0.536
25,COc1ccc2nc(N3C(=O)/C(=C/c4ccccc4)NC3=S)sc2c1,active: 11.9

row,SMILES,z-score
1,Cc1ccccc1CSc1nnc(NC(=O)Cc2cccs2)s1,0.0186
2,COc1ccc(C2C(C(=O)N3CCCCC3)CCC(=O)N2c2cc(OC)c(OC)c(OC)c2)cc1 (stereo not drawn),0.48
3,COc1cccc(C(=O)N/N=C/c2ccc(OC3CSC3)cc2)c1,-0.141
4,Cc1ccccc1Oc1ccc(S(=O)(=O)NCCC(=O)O)cc1,0.0137
5,Nc1cc(-c2ccccc2)nn1S(=O)(=O)c1ccc(F)cc1,-0.299
6,Cc1ccc(C2OCC3(CO2)COC(c2ccc(C)cc2)OC3)cc1 (stereo not drawn),-0.306
7,COc1cccc(CN(C)CC(=O)NNC(=O)c2ccc(Cl)cc2)c1,-0.252
8,Cc1cccc(NC(=O)CCS(=O)(=O)c2cccc3nsnc23)c1C,0.158
9,O=C(CC1COc2ccccc2O1)Nc1ccccn1 (stereo not drawn),-0.348
10,Cc1cc(Nc2ccccc2)nc(-c2ccccc2O)n1,-0.249
11,CCc1ccc(NCCC(=O)c2ccc(Br)cc2)cc1,-0.166
12,CCN1CCN(C(=S)c2ccc(Br)cc2)CC1,-0.0963
13,CCOC(=O)c1c(C)[nH]c(C(=O)OCCOc2ccc(Cl)cc2)c1C,-0.198
14,COc1cccc(OCc2nnc(SCC(=O)OC3CCCCC3)n2C)c1,-0.824
15,O=C(C1CCCN(Cc2ccccc2)C1)N1CCCCC1 (stereo not drawn),0.122
16,CCOC(=O)C1=C(O)/C(=C/c2cc(OC)c(OC)c(OC)c2)SC1=Nc1ccc(OC)cc1,-0.337
17,COc1ccc(OC)c(NC(=O)C(=O)N/N=C/c2ccccc2[N+](=O)[O-])c1,-0.219
18,Cc1nn(-c2ccccc2)c(Cl)c1C(=O)N(C)c1nc(-c2ccc(F)cc2)cs1,-0.426
19,Cc1ccc(CN=c2c([N+](=O)[O-])nn(-c3ccc4c(c3)OCCO4)n2O)cc1,-0.236
20,O=C(O)CCc1ccc(-c2ccccc2)n1CC(=O)O,1.44
21,CCOC(=O)CN1C=C(c2ccc3ccccc3n2)C(C[N+](=O)[O-])c2ccccc21 (stereo not drawn),0.302
22,Cc1cccc(NC(=O)c2cc(N3CCOCC3)nc3ccccc23)c1,0.0144
23,CCOC(=O)COc1c(OC)cc(Cl)cc1C1Nc2ccccc2C(=O)N1c1cccc(C)c1 (stereo not drawn),0.18

# From PubChem BioAssay AID488969 (Vanderbilt High Throughput Screening Facility, 2010)
